The record followed here is article PMC7819943, “Rice protein-binding microarrays: a tool to detect cis-acting elements near promoter regions in rice”.

The other results are listed elsewhere or left out.

In the test the target is T1, OsWOX13 (Oryza sativa, UniProt Q5QMM3 1-267).
T1 sequence: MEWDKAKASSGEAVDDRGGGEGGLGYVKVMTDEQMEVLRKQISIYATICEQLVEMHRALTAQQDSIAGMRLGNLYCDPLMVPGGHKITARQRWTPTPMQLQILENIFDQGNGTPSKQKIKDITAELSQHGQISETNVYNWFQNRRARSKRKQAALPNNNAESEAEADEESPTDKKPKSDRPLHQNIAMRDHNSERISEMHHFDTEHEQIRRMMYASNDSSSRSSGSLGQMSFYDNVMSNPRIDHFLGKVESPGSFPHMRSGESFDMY
Description: protein-binding microarray (RPBM); PBS, 2% BSA, 51.3 ng/ul salmon testes DNA, 50 uM zinc acetate, 200 nM TF, 25 C, 1 h; high values mean tight binding. The note with it: protein: recombinant; tags: N-terminal polyhistidine and DsRed monomer fusion (pET32a); label: CyDye5-dUTP incorporated in the synthesized complementary strand; 3' TTTTT single-stranded linker to array surface; dsDNA, one strand shown. In outline: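 Binding signal is defined as the fluorescence intensity of each feature in arbitrary units, read on an Axon 4000B scanner. Transcription factors with N-terminal polyhistidine and DsRed fusions came from E. coli BL21-CodonPlus and were purified on Ni–NTA. They were incubated at 200 nM for 1 h at 25 °C on a custom Agilent array that had been made double-stranded with Cy5-dUTP, with 50 µM zinc acetate present, and the array was washed.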
For the sequence “CAAGCAATGATTGGATTGGATGCTGACGATGAAACGAACCCGGAGTCACCTAGTGCAG”, the binding signal is 20700 fluorescence intensity (a.u.).
The figure for “TGGTAACTAAACTGCCATGTCAGGGACAGATCGACCAGTGCGGAGTCACCTAGTGCAG” is 4990 fluorescence intensity (a.u.); for “ACACTAACAAATCAATTTTCTCTACCCACCACTCCTGAATCGGAGTCACCTAGTGCAG” it is 8890 fluorescence intensity (a.u.); for “CCTAACAGTGATTTCACCTTGTTACTCTGCAGGTGGCCGACGGAGTCACCTAGTGCAG” it is 18600 fluorescence intensity (a.u.).
The figure for “TTGATTAAGTTTATAGATAAATATAGTAATATTTACAGTACGGAGTCACCTAGTGCAG” is 10000 fluorescence intensity (a.u.).
For the sequence “AATAGATTATATACAATAAACAAACGGACATTCACTCGCGCGGAGTCACCTAGTGCAG”, the binding signal was 9220 fluorescence intensity (a.u.).
To “ACAGGCTGATTAAACAAGGTTTGCGCAATTTCACTTACCACGGAGTCACCTAGTGCAG” belongs 4490 fluorescence intensity (a.u.); to “TCTGATCATCTTTAATTTCTTAGATGACTAGTTTTAAAACCGGAGTCACCTAGTGCAG”, 11000 fluorescence intensity (a.u.); to “TTCTGATAGGGAGGTAGTACATACTCTCTCTACTCCAAAACGGAGTCACCTAGTGCAG”, 3600 fluorescence intensity (a.u.).
To “TATAAACTCTGATTTAATTATTTCTGAAGTAAACTTATTTCGGAGTCACCTAGTGCAG” belongs 13600 fluorescence intensity (a.u.); to “GTTTTCCTAATTAATTGCTAGCTCGATTTGCTCGGTGATCCGGAGTCACCTAGTGCAG”, 29900 fluorescence intensity (a.u.).
To “TATGGTTATAATTTTATTGATATAAATAGTATATAAGAAACGGAGTCACCTAGTGCAG” belongs 3500 fluorescence intensity (a.u.); to “TCTAGGATTTAAATTTATACACAATATAAATACTCTAAGACGGAGTCACCTAGTGCAG”, 3590 fluorescence intensity (a.u.).
As to “TTGTCCATCACAATTGCTAATTAACTAAGACACCCTTCCTCGGAGTCACCTAGTGCAG”, the binding signal was 21100 fluorescence intensity (a.u.).
The figure for “ACTGATTACTTAATTGGAAATTTGGAATGATTCAATCCATCGGAGTCACCTAGTGCAG” is 41500 fluorescence intensity (a.u.); for “TGTATCAATTGACACATTCTATATTATGAAGATAAGTACCCGGAGTCACCTAGTGCAG” it is 16000 fluorescence intensity (a.u.); for “ATTTATTTTGTGATTGTATGGAGAGCTTCTCTCAGAAGTCCGGAGTCACCTAGTGCAG” it is 4770 fluorescence intensity (a.u.).
The figure for “TATAAATTTATCTAAAGTAACAACTTTCATAATTTATTGTCGGAGTCACCTAGTGCAG” is 16400 fluorescence intensity (a.u.); for “GTTCATTCGCATAATTGCCTCAATCTATTGTGTGTTCATACGGAGTCACCTAGTGCAG” it is 10800 fluorescence intensity (a.u.); for “AGCCTAATTAATCCGATATTAGTAAATGTTTACTGTAGCACGGAGTCACCTAGTGCAG” it is 15000 fluorescence intensity (a.u.).
Consider “TTTTATAAATTTATAGTACTAATACTAACAATTAAAACTCCGGAGTCACCTAGTGCAG”, for which the binding signal was 7430 fluorescence intensity (a.u.).
The figure for “ATTAATTGTGAAGAGCTAACTATTATATGGATAGGATGAGCGGAGTCACCTAGTGCAG” is 34400 fluorescence intensity (a.u.).
The figure for “CAAAATGGGATTAGAACCGTTCTATCTTGGTAGGTAAGATCGGAGTCACCTAGTGCAG” is 3870 fluorescence intensity (a.u.); for “TATTCTAATTTGTTGTATCATATCCCATTCCGATCGTTTACGGAGTCACCTAGTGCAG” it is 8640 fluorescence intensity (a.u.); for “TATTCTAAATTAACTCTAATTCGAGTATTCAACCGACATCCGGAGTCACCTAGTGCAG” it is 8800 fluorescence intensity (a.u.).
The figure for “ATGTAAACTGCAAATGATATTCTAGAGATGAAAAGCTCAGCGGAGTCACCTAGTGCAG” is 9830 fluorescence intensity (a.u.); for “TCTATATGAAATCAATCAATTCGAATATTCAAATTCTAAACGGAGTCACCTAGTGCAG” it is 4930 fluorescence intensity (a.u.).
Regarding “AATTGATTATACACAAGTTCCTATAGAAGATACATATAACCGGAGTCACCTAGTGCAG”, the binding signal is 9410 fluorescence intensity (a.u.).
For “TTGTTATATTGACATATTCGCATGGTAGTAACTAATTGCGCGGAGTCACCTAGTGCAG”, the binding signal was 17000 fluorescence intensity (a.u.).
To “TGTCAAATCATGACGCAATTAGGCTCAGAAGATTCGTCTCCGGAGTCACCTAGTGCAG” belongs 13000 fluorescence intensity (a.u.); to “AGAGAATGACAGATTGGCCCGATCGATTTGTTCTCCGGCACGGAGTCACCTAGTGCAG”, 30400 fluorescence intensity (a.u.); to “AGCAAATCACAGATCAATTTGTACCAGTACATCTATAAGACGGAGTCACCTAGTGCAG”, 14700 fluorescence intensity (a.u.).
To “TTATACAGATTGCGACTAATTTGCGAGACGAATCTTTTAACGGAGTCACCTAGTGCAG” belongs 12300 fluorescence intensity (a.u.).
The figure for “CCCTCTCATCCTTAGGTTTGATTGTTGAGTACGAGCCAAACGGAGTCACCTAGTGCAG” is 3420 fluorescence intensity (a.u.).
“ATATATATATATATATATATATATATATATATATATATATCGGAGTCACCTAGTGCAG”: the binding signal is 3960 fluorescence intensity (a.u.).
With “ATATGATATGATATGATATGCACGCACAGAAACCGTATAACGGAGTCACCTAGTGCAG”, the binding signal was 4500 fluorescence intensity (a.u.).
The figure for “ATCACCTGATTACAAATTAAGCAGTTCCACTGAAACCATTCGGAGTCACCTAGTGCAG” is 19100 fluorescence intensity (a.u.).
To “ATGGGTGATTATGCTCTTGATGAACTTCATCACGGTGTAGCGGAGTCACCTAGTGCAG” belongs 32500 fluorescence intensity (a.u.).
To “GTAAACTTGTCACTCAGCTTTAACCACAAGATTACAGATACGGAGTCACCTAGTGCAG” belongs 3410 fluorescence intensity (a.u.); to “TATACAATACATAGATAGATAGATAGCTTGAATTGAAGGGCGGAGTCACCTAGTGCAG”, 5940 fluorescence intensity (a.u.); to “ACTTGATTGAAATCGAAGCATCTGTTTTCGCGTGTTTGAGCGGAGTCACCTAGTGCAG”, 59900 fluorescence intensity (a.u.).
For the sequence “GCCATGATTTATGAGATCAAGTAGTGGTCACTTTATATACCGGAGTCACCTAGTGCAG”, the binding signal is 6470 fluorescence intensity (a.u.).
